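Method: 48-hour compound exposure of cells in 96-well plates, five concentrations, linear interpolation of endpoints. GI50: concentration for 50% inhibition of growth.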 Calls of active or inactive are those of the source. Cut-off read from the data, not from the text of the source: active = GI50 up to about 1.1 µM and inactive = higher.
tested on: NCI-H322M; assay: NCI-60 cell line screen, 48 h

**Q.** With `Oc1ccc(Cc2cc(Cl)cc(Cl)c2O)cc1Cl` as the molecule, how does the GI50 read?
**A.** The GI50 was inactive: 19.6 µM.

**Q.** How did the GI50 turn out when `COc1ccc2nccc(SCC(=O)O)c2c1` was run?
**A.** Its GI50 is inactive: > 100 µM.

**Q.** For `NS(=O)(=O)c1ccc(NC2=CC(=O)C(=O)c3ccccc32)cc1`, which GI50 is on record?
**A.** The GI50 was inactive: > 100 µM.

**Q.** For `C[C@H](NC(=O)C(Cc1ccccc1)(Cc1ccc(O)cn1)NC(=O)c1ccccc1)c1ccccc1` (stereo not given in full), which GI50 is on record?
**A.** The GI50 was inactive: 18.5 µM.

**Q.** For `C/C=C/C[C@@H](C)C(=O)C1C(=O)N[C@@H](C(C)C)C(=O)N(C)CC(=O)N(C)[C@@H](CC(C)C)C(=O)N[C@@H](C(C)C)C(=O)N(C)[C@@H](CC(C)C)C(=O)N[C@@H](C)C(=O)N[C@@H](C)C(=O)N(C)[C@@H](CC(C)C)C(=O)N(C)[C@@H](CC(C)C)C(=O)N(C)[C@@H](C(C)C)C(=O)N1C` (stereo not given in full), which GI50 is on record?
**A.** The GI50 was inactive: 7.59 µM.

**Q.** How did the GI50 turn out when `O=C(O)c1ccc([I+]c2ccccc2)cc1` was run?
**A.** Its GI50 is inactive: > 100 µM.

**Q.** `O=C(CCSC(CC(=O)c1ccc(Cl)cc1)c1ccc(Cl)cc1)Nc1ccc(Cl)cc1` (stereo not given) was tested. Which GI50 did it give?
**A.** Its GI50 is inactive: 10.4 µM.

**Q.** How did the GI50 turn out when `COc1ccc(C(=O)/C(=N/Nc2ccccc2)c2ccc(OC)cc2)cc1` was run?
**A.** The GI50 was inactive: > 100 µM.

**Q.** How did the GI50 turn out when `O=NN(CCCl)C(=O)N[C@H]1CC[C@@H](C(=O)O)CC1` was run?
**A.** Its GI50 is inactive: > 100 µM.

**Q.** `CC1(C)CC2(C)CC1CC2O` (stereo not given) was tested. Which GI50 did it give?
**A.** The GI50 was inactive: > 100 µM.

**Q.** With `O=C(c1ccc(Cl)cc1Cl)N(C(=O)N1CCC(c2ccccc2)CC1)c1ccccc1` as the molecule, how does the GI50 read?
**A.** The GI50 was inactive: > 100 µM.

**Q.** Which GI50 does the source give for `CC1CCC(O)C(C(O)CC2CC(=O)N(C)C(=O)C2)C1` (stereo not given) here?
**A.** Its GI50 is inactive: > 100 µM.

**Q.** Which GI50 does the source give for `NC(=O)NC(=O)c1cnccn1` here?
**A.** The GI50 was inactive: > 100 µM.

**Q.** With `Cc1ccc(S(=O)(=O)N/N=C2\CC3C4C=CC3C2C4)cc1` (stereo not given) as the molecule, how does the GI50 read?
**A.** Its GI50 is inactive: > 100 µM.

**Q.** For `CCOC(=O)c1c(-c2ccc(O)c(OC)c2)c(C#N)c(=S)n(C2OC(COC(C)=O)C(OC(C)=O)C(OC(C)=O)C2OC(C)=O)c1-c1ccccc1` (stereo not given), which GI50 is on record?
**A.** Its GI50 is inactive: > 100 µM.

**Q.** How did the GI50 turn out when `CCCCOC(=O)NC(=O)c1cn(C2CCCCC2)c(=O)[nH]c1=O` was run?
**A.** The GI50 was inactive: 19.3 µM.

**Q.** With `COc1cccc2c1C(=O)c1c(O)c3c(c(O)c1C2=O)C[C@@](O)(C(=O)CO)C[C@@H]3OC1CC(N(C)C)C(O)C(C)O1` (stereo not given in full) as the molecule, how does the GI50 read?
**A.** Its GI50 is active: < 0.016 µM.

**Q.** For `CC1=CC(=O)NP(=O)(Oc2ccc(C)cc2)N1` (stereo not given), which GI50 is on record?
**A.** The GI50 was inactive: > 100 µM.

**Q.** Which GI50 does the source give for `O=P(c1ccccc1)(c1ccccc1)C(NCc1ccccc1)c1ccc(F)cc1` (stereo not given) here?
**A.** The GI50 was inactive: 14.9 µM.

**Q.** How did the GI50 turn out when `O=[N+]([O-])/C=C/COCc1cc2c(cc1Br)OCO2` was run?
**A.** Its GI50 is inactive: > 100 µM.

**Q.** With `CCC(C)C1=C(O)[N+]2([O-])Oc3ccc(-c4c(O)c(O)c(-c5ccc(OC(C)=O)cc5)c(OC(C)=O)c4OC(C)=O)cc3OC2(C(C)CC)C(=O)N1O` (stereo not given) as the molecule, how does the GI50 read?
**A.** The GI50 was inactive: > 50 µM.

**Q.** With `O=C(N/N=C/C=C/c1ccc([N+](=O)[O-])o1)c1ccc(C(=O)N/N=C/C=C/c2ccc([N+](=O)[O-])o2)cc1` as the molecule, how does the GI50 read?
**A.** Its GI50 is inactive: > 89.9 µM.

**Q.** `C[N+](C)(C)Cc1c(CC#N)[nH]c2ccccc12` was tested. Which GI50 did it give?
**A.** The GI50 was inactive: > 100 µM.

**Q.** `C/C=C1/CN2CCC34c5ccccc5N5C(=O)C(C6CC78c9ccccc9N9C(=O)C=CC(C%10CC7N6C/C%10=C/C)C98)=CC(C1CC23)C54` (stereo not given) was tested. Which GI50 did it give?
**A.** The GI50 was inactive: 6.81 µM.

**Q.** Which GI50 does the source give for `CCOC(=O)C1(c2ccccc2)CCCNCC1` (stereo not given) here?
**A.** The GI50 was inactive: 47.3 µM.

**Q.** For `CCN(CC)c1ccc2cc(C(=O)NCc3ccccc3)c(=N)oc2c1`, which GI50 is on record?
**A.** The GI50 was inactive: > 100 µM.

**Q.** Which GI50 does the source give for `COC(=O)CNC(=O)CCSc1nnc(COc2ccc(Cl)cc2)n1-c1ccccc1` here?
**A.** Its GI50 is inactive: 23 µM.

**Q.** `CC1(O)CC2(O)C=CC3=C(C(=O)c4cccc(O)c4C3=O)C2(O)C(=O)C1O` (stereo not given) was tested. Which GI50 did it give?
**A.** Its GI50 is inactive: 11.4 µM.

**Q.** For `CC(C)C1(NC(=O)C2CC3c4cccc5[nH]cc(c45)CC3N(C)C2)OC2(O)C3CCCN3C(=O)C(Cc3ccccc3)N2C1=O` (stereo not given), which GI50 is on record?
**A.** The GI50 was inactive: 34.8 µM.

**Q.** How did the GI50 turn out when `COC1OC(=O)C(OC)C(OC)C1OC` (stereo not given) was run?
**A.** The GI50 was inactive: > 100 µM.

**Q.** For `O=C1N2CCc3c([nH]c4ccccc34)C23CC2CCCCC12S3` (stereo not given), which GI50 is on record?
**A.** The GI50 was inactive: > 100 µM.

**Q.** `CC(C)C/C(CC(=O)CCC(=O)Nc1ccccc1[N+](=O)[O-])=N\NC(=O)c1cc2ccccc2cc1O` was tested. Which GI50 did it give?
**A.** Its GI50 is inactive: 44.9 µM.

**Q.** For `COC(=O)CCn1cnc2c(SC)ncnc21`, which GI50 is on record?
**A.** Its GI50 is inactive: > 100 µM.

**Q.** With `CCN/C(=N\Nc1ccc([N+](=O)[O-])cc1)P(=O)(OC(C)C)OC(C)C` as the molecule, how does the GI50 read?
**A.** The GI50 was inactive: > 100 µM.

**Q.** `COc1cc([C@@H]2c3cc4c(cc3[C@@H](c3c(O)cc(O)c5c3O[C@H](c3ccc(O)c(O)c3)[C@@H](O)C5)[C@H]3COC(=O)[C@H]23)OCO4)cc(OC)c1OC` was tested. Which GI50 did it give?
**A.** The GI50 was inactive: 53.3 µM.

**Q.** Which GI50 does the source give for `CCN1CCCn2c(=O)[nH]c3cc(Br)cc1c32` here?
**A.** Its GI50 is inactive: > 100 µM.

**Q.** With `CC1=CC2C3(C)C(C)(C(C)=CP3(=O)c3c(C(C)C)cc(C(C)C)cc3C(C)C)C1P2(=O)c1c(C(C)C)cc(C(C)C)cc1C(C)C` (stereo not given) as the molecule, how does the GI50 read?
**A.** Its GI50 is inactive: 2.47 µM.

**Q.** How did the GI50 turn out when `CCCCCCCSCC1OC(n2cnc3c(N)ncnc32)C(O)C1O` (stereo not given) was run?
**A.** Its GI50 is inactive: 57.8 µM.

**Q.** `Cc1cccc2c1c(=O)c1c(O)c3c(cc1n2C)OC(C)(C)C=C3` was tested. Which GI50 did it give?
**A.** The GI50 was inactive: > 10 µM.

**Q.** Which GI50 does the source give for `CC(=O)OCC12C(OC(C)=O)C[C@@H](C)C3(CC(c4ccoc4)OC3=O)C1CCC(O)C21CO1` (stereo not given in full) here?
**A.** The GI50 was inactive: > 100 µM.

**Q.** How did the GI50 turn out when `CP(=O)(O)C(N)c1ccccc1` (stereo not given) was run?
**A.** Its GI50 is inactive: > 100 µM.

**Q.** Which GI50 does the source give for `COc1ccc2c(c1)[C@@H]1c3cc(OC)c(OC)cc3CCN1CCC2` here?
**A.** The GI50 was inactive: > 100 µM.

**Q.** With `COC(=O)c1nn(-c2ccccc2)c(=O)cc1N=[N+]=[N-]` as the molecule, how does the GI50 read?
**A.** The GI50 was inactive: > 100 µM.

**Q.** How did the GI50 turn out when `n1onc2c1NC1Nc3nonc3NC1N2` (stereo not given) was run?
**A.** The GI50 was inactive: > 100 µM.

**Q.** With `CCCN(CCC)C(=S)N/N=C/c1cccc(C)n1` as the molecule, how does the GI50 read?
**A.** The GI50 was active: 0.0261 µM.
